Experimental data from PubChem BioAssay AID2147 (National Center for Advancing Translational Sciences (NCATS), 2009).
Screen size: about 230,000 compounds; about 3,600 (1.6%) were called active. Inconclusive means that the source gave no clear call. Such entries were picked first, then a sample of the others. The call rests on the fitted dose curve; in most records, active means well fitted inhibition curve with a large enough effect (not every such curve was filed as active); inconclusive means small, poorly fitted or top-dose-only effect, or another doubt; inactive means no such curve, though single readings can be large or run the other way. Potencies beside an inconclusive call are fits to weak or partial responses and may not hold up.

Each compound was assayed against Lysine-specific demethylase 4E (Homo sapiens) (UniProt B2RXH2) (assay: qHTS Assay for Inhibitors of Human Jumonji Domain Containing 2E (JMJD2E)). Settings: JMJD2E catalytic domain, FDH-coupled NADH fluorescence (FDH is formaldehyde dehydrogenase); series mostly up to 57.1 µM; activity change, negative = inhibition: at the top concentration.
Further: nearly all actives have a fitted effect of over 50% in size.
Potency means the concentration at half of the fitted maximal effect; tags describe the fitted curve by direction and shape.
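Wherever activity change, negative = inhibition is given: 0% = wells with enzyme and -100% = buffer wells without enzyme.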

UniProt B2RXH2, sequence (B2RXH2 whole entry, looked up, the tested form may be a part): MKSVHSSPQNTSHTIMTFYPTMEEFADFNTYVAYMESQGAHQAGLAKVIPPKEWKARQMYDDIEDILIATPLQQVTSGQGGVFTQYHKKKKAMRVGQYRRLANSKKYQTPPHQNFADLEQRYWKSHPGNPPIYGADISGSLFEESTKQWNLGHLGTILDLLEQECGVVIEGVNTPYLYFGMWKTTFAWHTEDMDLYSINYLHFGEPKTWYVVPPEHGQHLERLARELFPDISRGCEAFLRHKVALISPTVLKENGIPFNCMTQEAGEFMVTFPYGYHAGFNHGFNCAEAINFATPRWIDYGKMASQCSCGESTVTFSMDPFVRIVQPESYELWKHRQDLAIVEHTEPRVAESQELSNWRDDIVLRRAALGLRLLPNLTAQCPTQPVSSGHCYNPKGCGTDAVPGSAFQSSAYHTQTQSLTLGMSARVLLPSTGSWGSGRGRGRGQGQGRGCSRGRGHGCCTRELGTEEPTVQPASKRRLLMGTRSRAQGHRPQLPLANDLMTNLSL

Structure (SMILES) | Potency | activity change, negative = inhibition
CCOC(=O)c1c(-c2cccs2)csc1NC(=O)c1ccco1 | inconclusive: 7.08 µM [inhibitor, single point] | 
Cc1cc(C)c2c(n1)sc1c(=O)n(Cc3ccccc3Cl)nnc12 |  | inactive: 6.34%
COCCNC(=O)CN1C(=O)COc2ccc(Cl)cc21 | inconclusive: 39.8 µM [inhibitor, single point] | 
CN(C)c1ccc(/C=N/NC(=O)CCc2nc3ccccc3[nH]2)cc1 | inconclusive: 28.2 µM [inhibitor, partial curve] | 
Cc1ccc2cc(C)c(SCC(=O)Nc3ccc(S(=O)(=O)N4CCCC4)cc3)nc2c1 |  | inactive: -12.9%
CC(=O)NCCNC(=O)c1oc2ccccc2c1CSc1ncn[nH]1 | inconclusive: 39.8 µM [inhibitor, single point] | 
C=CCNc1oc(/C=C/c2ccccc2)nc1C#N | inconclusive: 31.6 µM [inhibitor, partial curve] | 
Cn1cnnc1SCC(=O)c1cccc([N+](=O)[O-])c1 |  | inactive: 4.39%
Cc1[nH]c2ccccc2c1/C=N/NC(=O)CNC(=O)c1cccs1 |  | inactive: -0.128%
O=C(Nc1ccc2oc(-c3ccncc3)nc2c1)c1ccc2c(c1)OCO2 | inconclusive: 35.5 µM [inhibitor, single point] | 
CCCCNC(=O)Nc1nnc(-c2ccccc2)o1 | inconclusive: 31.6 µM [inhibitor, partial curve] | 
COc1cc(OC)cc(C(=O)NCc2cc(C)nc3ccccc23)c1 | inconclusive: 39.8 µM [inhibitor, single point] | 
Cc1cc2nc(-c3ccccn3)c(-c3ccccn3)nc2cc1C | inconclusive: 39.8 µM [inhibitor, single point] | 
Nc1nc2nccc(-c3cccnc3)n2n1 | inconclusive: 28.2 µM [inhibitor, partial curve] | 
Cc1ccc(-c2cc(-c3ccc(C)o3)nc(N)c2C#N)cc1 | inconclusive: 28.2 µM [inhibitor, partial curve] | 
O=S(=O)(Nc1ccc2c(c1)OCCO2)c1cccs1 |  | inactive: 1.69%
N#C/C(=C\c1ccc2c(c1)OCO2)C(=O)NCc1ccco1 | inconclusive: 35.5 µM [inhibitor, single point] | 
O=C(NC1CCN(Cc2ccccc2)CC1)c1ccc2c(c1)[nH]c(=O)n2Cc1ccc(F)cc1 |  | inactive: 6.72%
COc1cc(NC(=O)c2cnn3c(C)cc(C)nc23)c(OC)cc1Cl | inconclusive: 39.8 µM [inhibitor, single point] | 
CCN(CC)CCOC(=O)c1cccc2c1-c1ccccc1C2O (stereo unspecified) | inconclusive: 28.2 µM [inhibitor, partial curve] | 
Cc1cc(C)c(C(=O)/C=C/c2ccco2)c(=O)[nH]1 | inconclusive: 25.1 µM [inhibitor, single point] | 
CCOC(=O)c1cc2c(=O)n3ccccc3nc2n(Cc2ccco2)c1=NC(=O)c1ccccc1OC | inconclusive: 31.6 µM [inhibitor, partial curve] | 
COn1c(C)c(C(C)=O)c2c3nonc3ccc21 | inconclusive: 14.1 µM [inhibitor, partial curve] | 

Structure (SMILES) | Potency | activity change, negative = inhibition
CC(=O)NCc1ccc(-c2nc3ccccc3s2)cc1 | inconclusive: 25.1 µM [inhibitor, partial curve] | 
Nc1nc2ccccc2n1C(=O)c1ccc(F)cc1 | inconclusive: 35.5 µM [inhibitor, single point] | 
Cc1c(CBr)[n+](=O)c2c(n1[O-])C(Br)CCC2Br (stereo unspecified) | active: 28.2 µM | 
CN(C)CCCNc1c2c(nc3cc(-c4cccc(F)c4)nn13)CCC2 | inconclusive: 3.98 µM [inhibitor, full curve] | 
CCOC(=O)c1ccccc1NC1OC(=O)c2ccccc21 (stereo unspecified) | inconclusive: 25.1 µM [inhibitor, partial curve] | 
Cc1nc2nc(-c3cccs3)cn2nc1C | inconclusive: 35.5 µM [inhibitor, single point] | 
COc1ccc(Cn2c(=S)[nH]c3ccsc3c2=O)cc1 |  | inactive: -12%
CSc1nc(-c2ccccc2)[nH]c(=S)c1C(C)=O | inconclusive: 25.1 µM [inhibitor, single point] | 
COC(=O)CN1C(=S)N(c2ccc(OC)cc2)C(=O)/C1=C/c1ccc(OC)cc1 |  | inactive: -3.69%
Cc1cccc(NC(=O)/C(C#N)=C/c2cn(CC(=O)NCc3ccco3)c3ccccc23)c1C | inconclusive: 35.5 µM [inhibitor, partial curve] | 
NC(=O)c1ncn(C2OC(CO)C(O)C2O)c1N (stereo unspecified) | inconclusive: 39.8 µM [inhibitor, single point] | 
O=C(Nc1cnc2ccccc2c1)N1CCCCC1 | inconclusive: 39.8 µM [inhibitor, single point] | 
O=S(=O)(c1cccc2cccnc12)N1CCN(Cc2ccccc2)CC1 |  | inactive: -1.04%
CCc1ccn2cc(-c3ccc4c(c3)OCO4)nc2c1 | inconclusive: 31.6 µM [inhibitor, partial curve] | 
CSc1ccccc1NC(=O)c1ccc(Cl)s1 |  | inactive: -2.56%
CN(C)c1ccc(CNCCC2(O)CCOC(C)(C)C2)cc1 (stereo unspecified) | inconclusive: 39.8 µM [inhibitor, single point] | 
CCOc1cc(CN2CCN(C(=O)c3ccco3)CC2)ccc1OC | inconclusive: 35.5 µM [inhibitor, single point] | 
COc1ccc2c(COC(=O)c3n[nH]c4ccccc34)cc(=O)oc2c1 | inconclusive: 14.1 µM [inhibitor, partial curve] | 
O=C(O)CCC(=O)NCc1ccc2[nH]c3c(c2c1)CCCC3 | inconclusive: 39.8 µM [inhibitor, single point] | 
C=CCn1c(COc2cccc3ccc(C)nc23)nnc1SCC(=O)OC | inconclusive: 31.6 µM [inhibitor, single point] | 
Cc1nc(SCCO)c2oc3ccccc3c2n1 | inconclusive: 39.8 µM [inhibitor, single point] | 
O=C(Nc1ccccc1N1CCOCC1)C1CCN(S(=O)(=O)c2ccccc2F)CC1 | inconclusive: 39.8 µM [inhibitor, single point] | 
COc1ccc(C2=C(C#N)C(=O)OC2)cc1 |  | inactive: -15.5%
